Measured values as given in US20230093512A1 (NANJING GENSCRIPT BIOTECH, published 2023).
Where two headings read alike, the source gives them in different places.

T1: TGF-β2
T1 sequence (P61812 303-414, species assumed, looked up): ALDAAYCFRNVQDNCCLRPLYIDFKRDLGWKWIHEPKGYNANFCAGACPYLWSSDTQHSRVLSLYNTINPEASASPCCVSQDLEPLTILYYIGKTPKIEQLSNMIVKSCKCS

T2: TGF-β3
T2 sequence (P10600 301-412, species assumed, looked up): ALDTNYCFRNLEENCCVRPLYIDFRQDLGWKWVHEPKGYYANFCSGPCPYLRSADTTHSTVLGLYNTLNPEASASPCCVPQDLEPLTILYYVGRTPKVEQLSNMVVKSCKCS


Tests used:
[1] = target: T3, human PD-L1 (PD-L1 aAPC/CHO-K1 cells) (human, UniProt Q9NZQ7); assay: cell-based or functional assay
[2] = target: T3, human PD-L1 (PD-L1 aAPC/CHO-K1 cells); assay: cell-based or functional assay; remark: listed apart in the source
T3 sequence (Q9NZQ7 19-290): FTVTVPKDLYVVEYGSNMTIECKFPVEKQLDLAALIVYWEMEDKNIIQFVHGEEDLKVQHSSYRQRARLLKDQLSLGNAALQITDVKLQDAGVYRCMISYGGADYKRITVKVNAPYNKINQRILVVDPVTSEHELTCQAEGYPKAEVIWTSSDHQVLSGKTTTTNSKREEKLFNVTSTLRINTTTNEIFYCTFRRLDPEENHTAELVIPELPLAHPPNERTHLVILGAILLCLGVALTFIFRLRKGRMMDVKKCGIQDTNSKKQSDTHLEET

[3] = target: T1, TGF-β2; assay: SPR, TGFβ ligand amine-coupled to chip, fusion protein as analyte, 25 °C, HBS-EP
[4] = target: T2, TGF-β3; assay: as above
[5] = target: TGF-β1; assay: as above
Chain of TGF-β1 (P01137 279-390): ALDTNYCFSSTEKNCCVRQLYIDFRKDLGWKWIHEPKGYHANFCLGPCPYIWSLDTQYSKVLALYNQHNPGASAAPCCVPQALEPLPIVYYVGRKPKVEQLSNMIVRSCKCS

Binder	EC50, luminescence (RLU) of PD-1 effector cells co-cultured with PD-L1 aAPC/CHO-K1 cells, PD-1/PD-L1 blockade bioassay [1]	EC50, luminescence (RLU) of PD-1 effector cells co-cultured with PD-L1 aAPC/CHO-K1 cells, PD-1/PD-L1 blockade bioassay [2]	Kd [3]	koff [3]	kon [3]	Kd [4]	koff [4]	kon [4]	Kd [5]	koff [5]	kon [5]
ADD19-15-L03-G4 (other, also called ADD19-15-03-G4) heavy: EVQLVQSGAEVKKPGASVKVSCKASGYIFTGYGITWVRQAPGQGLEWMGEIFPRRVQTYYSEKFKGRVTMTTDTSTSTAYMELRSLRSDDTAVYYCARDYDPYFALDYWGQGTTVTVSSASTKGPSVFPLAPSSKSTSGGTAALGCLVKDYFPEPVTVSWNSGALTSGVHTFPAVLQSSGLYSLSSVVTVPSSSLGTQTYICNVNHKPSNTKVDKRV[gap - human IgG1 Fc] light: DIQMTQSPSSLSASVGDRVTITCRASQDVSTAVDWYQQKPGKAPKLLIYSASYRYTGVPDRFSGSGSGTDFTFTISSLQPEDIATYYCQQHYSIPFTFGQGTKLEIKRTVAAPSVFIFPPSDEQLKSGTASVVCLLNNFYPREAKVQWKVDNALQSGNSQESVTEQDSKDSTYSLSSTLTLSKADYEKHKVYACEVTHQGLSSPVTKSFNRGECGGGSIPPHVQKSVNNDMIVTDNNGAVKFPQLCKFCDVRFSTCDNQKSCMSNCSITSICEKPQEVCVAVWRKNDENITLETVCHDPKLPYHDFILEDAASPKCIMKEKKKPGETFFMCSCSSDECNDNIIFSEEYNTSNPD	684 pM	–	–	–	–	–	–	–	–	–	–
Anti-PD-L1 mAb (antibody, human IgG1, kappa) heavy chain H0: EVQLVQSGAEVKKPGASVKVSCKASGYIFTGYGITWVRQAPGQGLEWMGEIFPRRVQTYYSEKFKGRVTMTTDTSTSTAYMELRSLRSDDTAVYYCARDYDPYFALDYWGQGTTVTVSSASTKGPSVFPLAPSSKSTSGGTAALGCLVKDYFPEPVTVSWNSGALTSGVHTFPAVLQSSGLYSLSSVVTVPSSSLGTQTYICNVNHKPSNTKVDKKV[gap - human IgG1 Fc with changes] light chain L0: DIQMTQSPSSLSASVGDRVTITCRASQDVSTAVDWYQQKPGKAPKLLIYSASYRYTGVPDRFSGSGSGTDFTFTISSLQPEDIATYYCQQHYSIPFTFGQGTKLEIKRTVAAPSVFIFPPSDEQLKSGTASVVCLLNNFYPREAKVQWKVDNALQSGNSQESVTEQDSKDSTYSLSSTLTLSKADYEKHKVYACEVTHQGLSSPVTKSFNRGEC	414 pM	422 pM	–	–	–	–	–	–	–	–	–
ADD19-15-01 (other, Anti-PD-L1 IgG1 with TBRII-ECD at the C-terminus of the heavy chain by G21-linker; also called GSADD19-15-01) heavy: EVQLVQSGAEVKKPGASVKVSCKASGYIFTGYGITWVRQAPGQGLEWMGEIFPRRVQTYYSEKFKGRVTMTTDTSTSTAYMELRSLRSDDTAVYYCARDYDPYFALDYWGQGTTVTVSSASTKGPSVFPLAPSSKSTSGGTAALGCLVKDYFPEPVTVSWNSGALTSGVHTFPAVLQSSGLYSLSSVVTVPSSSLGTQTYICNVNHKPSNTKVDKRV[gap - human IgG1 Fc]GGGGSGGGGSGGGGSGGGGSGIPPHVQKSVNNDMIVTDNNGAVKFPQLCKFCDVRFSTCDNQKSCMSNCSITSICEKPQEVCVAVWRKNDENITLETVCHDPKLPYHDFILEDAASPKCIMKEKKKPGETFFMCSCSSDECNDNIIFSEEYNTSNPD light: DIQMTQSPSSLSASVGDRVTITCRASQDVSTAVDWYQQKPGKAPKLLIYSASYRYTGVPDRFSGSGSGTDFTFTISSLQPEDIATYYCQQHYSIPFTFGQGTKLEIKRTVAAPSVFIFPPSDEQLKSGTASVVCLLNNFYPREAKVQWKVDNALQSGNSQESVTEQDSKDSTYSLSSTLTLSKADYEKHKVYACEVTHQGLSSPVTKSFNRGEC	–	716 pM	8550 pM	0.00313 s⁻¹	366000 M⁻¹ s⁻¹	1010 pM	0.00031 s⁻¹	308000 M⁻¹ s⁻¹	962 pM	0.000325 s⁻¹	338000 M⁻¹ s⁻¹
